The values below come from ChEMBL document CHEMBL4888484, “Replenishing the malaria drug discovery pipeline: Screening and hit evaluation of the MMV Hit Generation Library 1 (HGL1) against asexual blood stage Plasmodium falciparum ,using a nano luciferase reporter read-out” (2022).

Among all 150,000 compounds or so, about 540 (0.36%) showed an effect of 50% or more. This is one part of the list.

For the test, the system named is Plasmodium falciparum. As to the kind of experiment: Primary screen in NF54 nanoGlo assay, in single point, at 2uM, 72h; a lower Z score goes with more inhibition. Type of test: functional, Erythrocyte. To be noted: timepoint 72 hour.
A word on the % Inhibition: it is the change of the read-out against control, counted positive when it falls. With `Cn1nnc2cc(-c3noc(-c4cn(-c5ccccc5)nc4-c4ccccc4)n3)ccc21`, the “% Inhibition” value is -5% and the Z score is listed as 0.5.

Turning to `C[C@@H](CN(C)c1nnc(-c2ccccn2)s1)C(=O)O`, the “% Inhibition” value is listed as -11% and the Z score was 1.45.

`OCCc1ccc(Oc2cc(-c3ccccc3)nc3ncnn23)cc1`: the “% Inhibition” value worked out at 8% and the Z score is -0.93.

Regarding `O=C(Nc1ccn(CC(F)(F)F)n1)[C@H]1CCCOC1`, the “% Inhibition” value is given as 7% and the Z score was -1.2.

As for `CC1CN(CCCNC(=O)c2ccco2)CC(C)O1` (stereo unspecified), the “% Inhibition” value is given as -6% and the Z score is recorded as 1.03.

Consider `Cc1nn(C)c2nc(NCCc3nccs3)sc12`, for which the “% Inhibition” value was determined as 6% and the Z score was -0.82.

As to `Cn1cnnc1NC(=O)C1(c2ccc(Cl)c(Cl)c2)CCC1`, the “% Inhibition” value was -17% and the Z score turned out to be 3.6.

Turning to `COc1cccc(CN2C[C@]34C=C[C@H](O3)C(C(=O)N3CCOCC3)C4C2=O)c1` (stereo partly specified), the “% Inhibition” value was -21% and the Z score amounted to 1.94.

`Cn1cc(S(=O)(=O)NCc2cncc(C3CC3)c2)cn1`: the “% Inhibition” value was 21% and the Z score is -2.36.

Take `Cc1ccccc1-c1coc(-c2cccc(N)c2)n1`: the “% Inhibition” value is -12% and the Z score is reported as 1.92.

As to `CC[C@H]1C(=O)NCCN1Cc1cccc(C(=O)OC)n1`, the “% Inhibition” value was determined as 2% and the Z score is listed as -0.4.

Consider `O=C(C1CCCCCC1)N1CCC[C@H](c2cc(N3CCOCC3)ncn2)C1`, for which the “% Inhibition” value is on record as -10% and the Z score is recorded as 1.75.

In the case of `CCn1ncc(CN(C)c2cc(NCCO)ncn2)c1C`, the “% Inhibition” value is given as 0% and the Z score is -0.03.

In the case of `c1ccc(-c2onc3cc(Oc4ccc5c(-c6ccccc6)onc5c4)ccc23)cc1`, the “% Inhibition” value is recorded as -9% and the Z score is listed as 1.76.

For the compound `COc1ccc(OC)c(-c2csc(NC(=O)Cc3n[nH]c4c3CCCC4)n2)c1`, the “% Inhibition” value was -12% and the Z score was determined as 1.73.

Turning to `C[C@@]1(NC(=O)CCc2nc(C3CCCC3)no2)CC=CCC1`, the “% Inhibition” value was -10% and the Z score is given as 1.9.

For the compound `c1cnc2c(Cc3noc(C4CCN(C5CC5)CC4)n3)cccc2c1`, the “% Inhibition” value is reported as -8% and the Z score is 0.88.

As for `CC(C(=O)NCC(c1ccsc1)N(C)C)n1cncn1` (stereo unspecified), the “% Inhibition” value was -8% and the Z score came out at 1.17.

On to `CCCOc1ccc(-c2nc3ccc(-c4ccc5c(c4)OCO5)cc3o2)cc1`, for which the “% Inhibition” value is -8% and the Z score turned out to be 1.28.

For `CC[C@H](C)NC(=O)c1nc(-c2ccnc(N3CCOCC3)c2)no1`, the “% Inhibition” value was -11% and the Z score was determined as 1.51.

As to `CCCCn1nc(-c2csc(C)n2)nc1CCOC`, the “% Inhibition” value is 1% and the Z score was -0.21.

On to `Cc1cc(=O)n(Cc2ccccc2F)c2cc(OCC(=O)NCC3CC3)ccc12`, for which the “% Inhibition” value is recorded as -1% and the Z score was determined as 0.14.

Regarding `Cc1cc(NS(=O)(=O)c2cn(C)nc2C)no1`, the “% Inhibition” value is -2% and the Z score is given as 0.31.

With `CC(C)(C)OC(=O)N1CCC[C@H]1c1ncc(Br)cn1`, the “% Inhibition” value is recorded as -7% and the Z score was determined as 1.15.

For `COc1ccc(OCCOCCNC(C)C)cc1`, the “% Inhibition” value is listed as -6% and the Z score was found to be 1.1.

For `CCN1CCc2ccc(NC(=O)CNC)cc21`, the “% Inhibition” value is on record as -7% and the Z score came to 0.65.

Regarding `COc1ccccc1NC(=O)C(=O)Nc1ccccn1`, the “% Inhibition” value is -4% and the Z score was determined as 0.73.

On to `O=C1NCC2(CCN(C(=O)c3cc4ccccc4s3)CC2)O1`, for which the “% Inhibition” value is on record as -8% and the Z score is reported as 0.86.

Turning to `COC(=O)[C@@H]1C[C@@H](n2ccnc2-c2cnc(N(C)C)nc2)CN1C`, the “% Inhibition” value is -2% and the Z score is given as 0.41.

`COc1ccc(NC(=O)Cn2c(=O)ncc3cc(S(=O)(=O)N4CCCC[C@@H]4C)ccc32)cc1Cl`: the “% Inhibition” value is reported as -3% and the Z score is 0.54.

Turning to `CC(C)Cc1nc(CNC(=O)CCNS(C)(=O)=O)no1`, the “% Inhibition” value worked out at 4% and the Z score is -0.66.

Turning to `CC(C)c1nccc(NCCCc2cn[nH]c2)n1`, the “% Inhibition” value is listed as 13% and the Z score was -1.66.

Turning to `COC(=O)C1(NCCC(=O)N2CCc3ccccc3C2)CCCC1`, the “% Inhibition” value is -7% and the Z score is 0.92.

Regarding `COc1nscc1-c1noc([C@@H]2CCCN2C)n1`, the “% Inhibition” value is -5% and the Z score is given as 0.8.

On to `C[C@@H](CS(=O)(=O)NCc1ncc(C(C)(C)C)o1)c1ccccc1`, for which the “% Inhibition” value is 11% and the Z score is given as -1.39.

On to `CN1C(=O)c2cc(C(F)(F)F)ccc2O[C@H]2CN(C(=O)COc3ccccc3)C[C@H]21`, for which the “% Inhibition” value is 31% and the Z score was -3.52.

Turning to `CS(=O)(=O)c1ccc(OC[C@@]2(CNS(=O)(=O)c3ccc(Cl)cc3)C[C@@H](O)[C@@H](O)C2)cc1`, the “% Inhibition” value is recorded as -8% and the Z score stood at 1.27.

Take `Cc1nnc([C@H]2CN(C(=O)c3ccccc3)CC23CCN(Cc2ccccc2)CC3)o1`: the “% Inhibition” value is on record as -19% and the Z score amounted to 2.81.

For the compound `CN(Cc1noc2c1CCCC2)C(=O)c1c[nH]nc1-n1cnnn1`, the “% Inhibition” value is -11% and the Z score was determined as 1.54.

Turning to `O=C(Cc1ccon1)Nc1ncccc1-c1ccccc1`, the “% Inhibition” value is 3% and the Z score is reported as -0.6.

Turning to `O=C(NC1(c2cc(F)ccc2F)CC1)[C@H]1CCC[C@H](O)C1`, the “% Inhibition” value is recorded as -2% and the Z score is 0.2.

Consider `NC(=O)[C@H]1CCN(C(=O)c2ccc(Oc3ccc(Cl)cn3)cc2)C1`, for which the “% Inhibition” value is given as -10% and the Z score is 1.32.

As to `Cc1cc(F)ccc1NC(=O)c1cnn(-c2cccc(F)c2)c1C1CCN(C(=O)OC(C)(C)C)CC1`, the “% Inhibition” value is -6% and the Z score was determined as 0.65.
